# Test results: the supplement of paper PMC12889115
# This is one part of the list. Repeats are few or missing, and single values can be far off.
# Test system: Salmonella enterica serovar Typhimurium SL1344
# Assay: bacterial growth OD600 after 18 h in MHB with 0.5 µg/mL polymyxin B; higher = more bacterial growth (less inhibition)
# Conditions: 25 µM; polymyxin B 0.5 µg/mL; system: broth
# Experimental: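 Secondary screen of the 553 primary hits at 25 µM. (i) S. Typhimurium SL1344 grown in Mueller-Hinton broth with 0.5 µg/mL polymyxin B, OD600 read after 18 h. (ii) SAFIRE assay: RAW 264.7 macrophages infected with S. Typhimurium sifB::gfp (MOI 30); compound added 2 h post-infection; cells fixed at 18 h; GFP-positive pixel fraction per macrophage imaged by confocal microscopy and expressed as % of DMSO control.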
# 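Further: polymyxin B level opens the outer membrane while sparing the inner membrane, with novobiocin wells as reference growth inhibitor.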
row,SMILES,bacterial growth OD600
1,CN(Cc1n[nH]c2c1CCCCC2)C(=O)CC1(c2ccc(-c3ccccc3)cc2)CC(=O)N(C)C1=O (stereo not given),-0.002
2,CCc1ocnc1C(=O)NC1CC(=O)N(CCc2cccc(Cl)c2)C1 (stereo not given),0.633
3,CC(C)C[C@H](NC(=O)c1csc2nc(-c3cccc(C(F)(F)F)c3)cn12)C(N)=O,0
4,Clc1ccc(C2CCCN(Cc3nc(-c4ccccn4)no3)C2)cc1 (stereo not given),0.03
5,COCCN1C(=O)CC(CC(=O)N2CCCC(c3cccc(C)c3)C2)(c2ccccc2OC)C1=O (stereo not given),-0.006
6,O=C(NC1Cc2ccccc2C1)c1coc(COc2cccc(F)c2)n1,-0.003
7,CCC(=O)C1CCCN(C(=O)C2CCCN(c3nc(C)c4ccc(OC)cc4n3)C2)C1 (stereo not given),0.006
8,COc1ccc(C(=O)N2CCCC(C(=O)c3ccc(Cl)cc3C)C2)cc1 (stereo not given),-0.029
9,CN(CC1CCCCO1)C(=O)c1cn(Cc2ccc(Cl)cc2)nn1 (stereo not given),0.524
10,O=C(CC1(c2cccc(F)c2)CC(=O)N(C2CCCC2)C1=O)N1CCC(C(O)c2cccs2)CC1 (stereo not given),-0.006
11,Cc1cc(C)n(Cc2ccc(C(=O)N(Cc3ccncc3)Cc3cccc(OCCc4ccc(F)cc4)c3)cc2)n1,0.001
12,CCOC(=O)C1(CC2CC2)CCN(C(=O)C(C)Oc2cccc(Cl)c2)CC1 (stereo not given),0.086
13,O=C(NC1CCOC1)c1cc(COc2ccc3c(c2)CCCC3)on1 (stereo not given),0.354
14,COc1ccc(-c2nn(-c3ccccc3C)cc2CN(C)Cc2ccon2)cc1F,-0.001
15,CCn1cc(CN2CCC(c3ccc(OC)c(C)c3)Sc3cc(OC)ccc32)c(C)n1 (stereo not given),-0.001
16,O=C(c1ccc(-c2ccccc2)cc1)C1CCCN(C(=O)CCc2ccncc2)C1 (stereo not given),0
17,CC#CCOc1ccc(CN(C(=O)c2ccccc2OC)C2CCCC2)cc1,-0.013
18,CCOC(=O)C1(Cc2ccc(Cl)cc2)CCN(C(=O)NC(C)(C)C)CC1,0.003
19,CN(C)C1(C(=O)N2CCCC2c2ccc(F)cc2)Cc2ccccc2C1 (stereo not given),0.017
20,O=C(C1CC12CCCC2)N1CCc2[nH]nc(-c3ccc4c(c3)OCO4)c2C1 (stereo not given),0.005

row,SMILES,bacterial growth OD600
1,CSc1ncc(CN2CCc3c([nH]c4ccccc34)C2c2cccc(O)c2)cn1 (stereo not given),-0.001
2,O=C(CN1CC(c2ccccc2)CC1=O)NCCN1Cc2ccccc2OC(c2ccccc2F)C1 (stereo not given),-0.009
3,Cc1cc(C(=O)N2CCc3c([nH]c4ccccc34)C2c2ccc(F)cc2)no1 (stereo not given),0.002
4,Cc1cccc(N2CCN(C(=O)c3cn(Cc4ccccc4F)nn3)CC2)c1C,-0.013
5,Cc1c(CN2Cc3ccccc3OC(c3ccccc3F)C2)cnn1C (stereo not given),0.005
6,CC(=O)Nc1ccnn1C1CCN(Cc2ccc(-c3ccccc3)cc2)CC1,0.399
7,COc1cc(CN2CCCC(CO)(Cc3cccc(Cl)c3)C2)cc(Cl)c1OC (stereo not given),-0.008
8,O=C(/C=C/c1cccs1)N(Cc1ccncc1)Cc1cccc(OCCc2ccc(F)cc2)c1,-0.002
9,C=CC[C@@H]1CC=C[C@@H](c2ccccc2)N1C(=O)CCC1(Cc2ccc(SC)cc2)CCC(=O)N1 (stereo not given in full),0.001
10,Cc1nc(N2CCC(C(=O)N3CCNC(=O)C3c3cccc(F)c3)CC2)nc2ccc(C(C)C)cc12 (stereo not given),0.004
11,CC1CCN(Cc2nc(-c3cccc(Cl)c3)no2)CC1,0.415
12,Cc1ccc2c(c1)CN(Cc1cn(C)nc1C)CC(c1ccsc1)O2 (stereo not given),0.393
13,CN(C(=O)c1ccco1)C(Cc1ccc(F)cc1F)C1CCN(Cc2cc(Cl)ccc2O)CC1 (stereo not given),0.002
14,COc1cccc(CC(C2CCN(C(=O)/C=C/c3ccccc3F)CC2)N(C)C(=O)CC(C)C)c1 (stereo not given),-0.003
15,Cc1c(CN2CCOc3ccc(C4=CCCCC4)cc3C2)c(=O)n(-c2ccccc2)n1C,0.008
16,Cc1cnccc1CN(C)C(=O)CC(c1ccccc1)c1ccccc1Cl (stereo not given),0.004
17,COc1ccc(C(=O)N(Cc2ccncc2)Cc2cccc(OCCc3ccc(F)cc3)c2)cc1OC,-0.008
18,CC(C)CN(C)Cc1cnc(S(=O)(=O)CC(C)C)n1Cc1ccccc1,0.113
19,COc1cccc(CN2CCC(C(=O)Nc3ccccc3-c3cccc(OC)c3)CC2)c1,-0.005
20,COc1ccc2c(c1)SC(c1ccc3c(c1)OCO3)CCN2Cc1ccsc1 (stereo not given),0.006
